In the antibiotic and cytotoxicity screens of Wong et al. (2023):
Some of the results follow.

Experiments:
HSkMC = human skeletal muscle cells; experiment: cytotoxicity call (relative viability < 0.9); conditions: 10 µM
HepG2 = experiment: cytotoxicity call (relative viability < 0.9); conditions: 10 µM
S. aureus RN4220 = experiment: growth inhibition call (relative growth <= 0.2); conditions: 50 µM

| SMILES | cytotoxicity call (HSkMC) | cytotoxicity call (HepG2) | growth inhibition call (S. aureus RN4220) |
| --- | --- | --- | --- |
| CO[C@@H]1CN(C)C(=O)c2cc(NC(C)=O)ccc2OC[C@@H](C)N(S(=O)(=O)c2cn(C)cn2)C[C@@H]1C | inactive | inactive | inactive |
| C[C@@H]1CN([C@H](C)CO)C(=O)c2cc(C#Cc3ccccn3)cnc2O[C@@H]1CN(C)C(=O)CCN1CCCCC1 | inactive | inactive | inactive |
| C[C@H](CO)N1C[C@H](C)[C@H](CN(C)S(=O)(=O)c2ccc(F)cc2)Oc2ccc(NS(=O)(=O)c3cccs3)cc2CC1=O | inactive | inactive | inactive |
| CN1C(=O)N(C)[C@H]2NC(=O)N[C@@H]21 | inactive | inactive | inactive |
| COc1ccc(S(=O)(=O)N(C)C[C@H]2Oc3ccc(NS(=O)(=O)c4cn(C)cn4)cc3C(=O)N([C@@H](C)CO)C[C@H]2C)cc1 | inactive | inactive | inactive |
| CN(C)CCOC(c1ccccc1)c1ccccc1.Cn1c(=O)c2[nH]c(Cl)nc2n(C)c1=O | inactive | inactive | inactive |
| CC(C)CC#Cc1ccc2c(c1)O[C@@H](CN(C)C(=O)Cc1cccnc1)[C@@H](C)CN([C@H](C)CO)S2(=O)=O | inactive | inactive | inactive |
| C[C@@H]1CN([C@H](C)CO)C(=O)c2c(c3ccccc3n2C)-c2ccccc2CO[C@@H]1CN(C)Cc1ccc(C(F)(F)F)cc1 | active | inactive | inactive |
| COc1ccccc1-c1ccc2n(c1=O)C[C@H]1[C@H](CO)[C@@H](C(=O)NCC3CC3)N(S(C)(=O)=O)[C@@H]21 | inactive | inactive | inactive |
| C[C@@H]1CCCCO[C@@H](CN(C)S(=O)(=O)c2cccs2)[C@@H](C)CN([C@@H](C)CO)C(=O)c2cc(NC(=O)Nc3cccc4ccccc34)ccc2O1 | inactive | inactive | inactive |
| C[C@@H]1CCCCO[C@H](CN(C)C(=O)Nc2cccc3ccccc23)[C@H](C)CN([C@@H](C)CO)C(=O)c2cc(NS(C)(=O)=O)ccc2O1 | inactive | inactive | inactive |
| CN(C)C(=O)C[C@H]1C=C[C@@H](NC(=O)C2CC2)[C@H](CO)O1 | inactive | inactive | inactive |
| C[C@@H]1CN([C@H](C)CO)C(=O)c2cccc(NC(=O)c3ccncc3)c2O[C@@H]1CN(C)Cc1ccncc1 | inactive | inactive | inactive |
| O=C(C[C@@H]1CC[C@H](NC(=O)CN2CCOCC2)[C@H](CO)O1)NCc1cccc(F)c1 | inactive | inactive | inactive |
| C[C@@H]1CN([C@@H](C)CO)C(=O)c2cc(NC(=O)CCN3CCOCC3)ccc2O[C@H]1CN(C)Cc1ccc2c(c1)OCO2 | inactive | inactive | inactive |
| O=C(C[C@@H]1CC[C@H](NS(=O)(=O)c2ccc(F)cc2)[C@H](CO)O1)NCc1ccc(Cl)c(Cl)c1 | inactive | inactive | inactive |
| C[C@H](CO)N1C[C@H](C)[C@@H](CN(C)S(=O)(=O)c2ccc(Cl)cc2)Oc2c(NC(=O)c3ccc(-c4nccs4)cc3)cccc2C1=O | inactive | inactive | inactive |
| C[C@@H]1CN([C@@H](C)CO)C(=O)c2cc(NS(=O)(=O)c3ccc(Cl)cc3)ccc2O[C@@H](C)CCCCO[C@H]1CN(C)CC1CCCCC1 | inactive | inactive | inactive |
| Cc1noc(C)c1NC(=O)Nc1ccc2c(c1)C(=O)N([C@@H](C)CO)C[C@@H](C)[C@H](CN(C)Cc1ccc(C(=O)O)cc1)OCCCC[C@H](C)O2 | inactive | inactive | inactive |

| SMILES | cytotoxicity call (HSkMC) | cytotoxicity call (HepG2) | growth inhibition call (S. aureus RN4220) |
| --- | --- | --- | --- |
| C[C@@H]1CCCCO[C@H](CN(C)S(=O)(=O)c2cccs2)[C@@H](C)CN([C@@H](C)CO)C(=O)c2cc(NS(C)(=O)=O)ccc2O1 | inactive | inactive | inactive |
| CNC(=N)NCCC[C@H](N)C(=O)O | inactive | inactive | inactive |
| CO[C@H]1O[C@H](CO)C(=O)C(=O)[C@@H]1N | inactive | inactive | inactive |
| COc1cccc(S(=O)(=O)N2C[C@@H](O)COC[C@H]3O[C@H](CC(=O)N4CCOCC4)CC[C@@H]32)c1 | inactive | inactive | inactive |
| O[C@@H]1CCCC[C@H]1O | inactive | inactive | inactive |
| O=C(CCCCCNC(=O)OCCCCO[C@@H]1C[C@H](c2ccc3c(c2)OCO3)C=C(C(=O)N2CCOCC2)O1)NO | inactive | inactive | inactive |
| COc1cccc(NC(=O)N(C)C[C@@H]2OCc3ccccc3-c3c(n(C)c4ccccc34)C(=O)N([C@H](C)CO)C[C@@H]2C)c1 | inactive | inactive | inactive |
| COc1ccc(NC(=O)N(C)C[C@H]2OCCCC[C@@H](C)Oc3ccc(NC(=O)CCC(F)(F)F)cc3C(=O)N([C@H](C)CO)C[C@H]2C)cc1 | inactive | inactive | inactive |
| Fc1ccccc1[C@H]1Nc2ccc3ccccc3c2[C@H]2C=CC[C@@H]21 | inactive | inactive | inactive |
| CN(C)CCCNC(=O)C[C@H]1CC[C@H]2[C@@H](COc3ccc(NC(=O)c4ccccc4F)cc3C(=O)N2C)O1 | inactive | inactive | inactive |
| C[C@H]1CN([C@@H](C)CO)C(=O)c2cccc(NC(=O)Nc3ccc(C(F)(F)F)cc3)c2O[C@@H]1CN(C)C(=O)Nc1ccccc1 | inactive | active | active |
| C[C@@H]1CCCCO[C@H](CN(C)CC2CCCCC2)[C@@H](C)CN([C@H](C)CO)C(=O)c2cc(NC(=O)Cc3ccccc3)ccc2O1 | inactive | inactive | inactive |
| C1COC[C@H](c2nn[nH]n2)N1 | inactive | inactive | inactive |
| C[C@H]1CN([C@@H](C)CO)C(=O)c2cc(NS(=O)(=O)c3ccccc3)ccc2O[C@@H]1CN(C)S(=O)(=O)c1cccs1 | inactive | inactive | inactive |
| CC(C)c1c(O)c(-c2cc3c(c(C(C)C)c2O)CC[C@H]2C(C)(C)CCC[C@]32C)cc2c1CC[C@H]1C(C)(C)CCC[C@]21C | inactive | inactive | inactive |
| Cc1ccc(S(=O)(=O)N(C)C[C@H]2Oc3cc(C#Cc4ccncc4)ccc3S(=O)(=O)N([C@@H](C)CO)C[C@@H]2C)cc1 | inactive | active | inactive |
| Cc1cncc2cccc(S(=O)(=O)N3CC[C@H](N(C/C=C/c4ccc(Br)cc4)C/C=C/c4ccc(Br)cc4)C3)c12 | inactive | inactive | inactive |
| O=Cc1ccc(CO)o1 | inactive | inactive | inactive |
| COc1ccc(S(=O)(=O)N(C)C[C@@H]2Oc3ccc(NC(=O)NC(C)C)cc3CC(=O)N([C@@H](C)CO)C[C@H]2C)cc1 | inactive | inactive | inactive |

| SMILES | cytotoxicity call (HSkMC) | cytotoxicity call (HepG2) | growth inhibition call (S. aureus RN4220) |
| --- | --- | --- | --- |
| C[C@@H](NC(=O)N(C)C[C@@H]1OCc2ccccc2-c2c(n(C)c3ccccc23)C(=O)N([C@@H](C)CO)C[C@@H]1C)c1ccccc1 | inactive | inactive | inactive |
| C[C@H](CO)N1C[C@H](C)[C@@H](CN(C)C(=O)Nc2ccccc2)OCCCC[C@H](C)Oc2ccc(NC(=O)Nc3ccccc3)cc2C1=O | inactive | inactive | inactive |
| CN(C)CC(=O)NS(=O)(=O)c1ccccc1 | inactive | inactive | inactive |
| Cc1noc(C)c1NC(=O)Nc1ccc2c(c1)C(=O)N([C@H](C)CO)C[C@@H](C)[C@H](CN(C)Cc1ccc(C(F)(F)F)cc1)OCCCC[C@H](C)O2 | inactive | inactive | inactive |
| N[C@@H](c1ccncc1)c1ccc(OCc2ccccc2)cc1 | inactive | inactive | inactive |
| COCCOC(=O)N1C(=O)[C@@]2(c3cc(C#CCNC(N)=O)ccc31)[C@H](C(=O)N1CCc3cc(OC)c(OC)cc3C1)[C@H]1C(=O)O[C@H](c3ccccc3)[C@H](c3ccccc3)N1[C@@H]2c1ccccc1OCCO | inactive | inactive | inactive |
| Cc1ccc(Nc2c(F)cccc2Cl)c(CC(=O)O)c1 | inactive | inactive | inactive |
| CN1C(=O)c2cc(NC(=O)C3CCOCC3)ccc2OC[C@H]2O[C@@H](CC(=O)NCCc3ccncc3)CC[C@H]21 | inactive | inactive | inactive |
| C[C@H](CO)N1C[C@H](C)[C@@H](CN(C)CC2CCCCC2)Oc2c(NC(=O)c3cnccn3)cccc2C1=O | inactive | inactive | inactive |
| C[C@@H]1CN([C@H](C)CO)C(=O)c2cc(NC(=O)Cc3ccccc3)ccc2O[C@@H]1CN(C)S(=O)(=O)c1cccs1 | inactive | inactive | inactive |
| C[C@H](CO)N1C[C@H](C)[C@H](CN(C)C(=O)Nc2cccc3ccccc23)Oc2ccc(NC(=O)NC3CCCCC3)cc2C1=O | inactive | inactive | inactive |
| Cc1noc(C)c1NC(=O)N(C)C[C@@H]1OCCCC[C@H](C)Oc2ccc(NC(=O)Nc3cccc4ccccc34)cc2C(=O)N([C@@H](C)CO)C[C@H]1C | inactive | inactive | inactive |
| COc1ccc(S(=O)(=O)Nc2cccc3c2O[C@H](CN(C)S(=O)(=O)c2cn(C)cn2)[C@@H](C)CN([C@@H](C)CO)C3=O)cc1 | inactive | inactive | inactive |
| C[C@@H]1CN([C@@H](C)CO)C(=O)c2cc(C#CC3(O)CCCC3)cnc2O[C@H]1CN(C)S(=O)(=O)c1cccc(F)c1 | inactive | inactive | inactive |
| COc1cc(N)ccn1 | inactive | active | inactive |
| Oc1cc(O)c2c(c1)OC(c1cc(O)c(O)c(O)c1)C(O)C2 (stereo unspecified) | inactive | inactive | inactive |
| C[C@@H]1CN([C@H](C)CO)S(=O)(=O)c2ccc(C#Cc3ccccc3)cc2O[C@@H]1CN(C)S(=O)(=O)c1ccccc1F | inactive | inactive | inactive |
| CN1CCN(C(=O)C[C@@H]2CC[C@@H](NC(=O)c3ccc4c(c3)OCO4)[C@H](CO)O2)CC1 | inactive | inactive | inactive |
| CN1C(=O)c2cc(NC(=O)C3CCOCC3)ccc2OC[C@@H]2O[C@H](CC(=O)NCc3ccccc3F)CC[C@@H]21 | inactive | inactive | inactive |
